Results as given in PubChem BioAssay (NCATS).
Where “and” joins values, the source holds several entries; their conditions need not be identical. Identical values can stand only once. The shares of active, inactive and inconclusive entries below differ from those in the screen. For some assays here: Potencies of inconclusive entries are doubtful fits and often do not repeat. A structure can be active in one record and inactive in another. Calls of active or inactive are those of the source. Unless noted, the call rests on the fitted dose curve; in most records, active means well fitted curve in the direction sought with a large enough effect; inconclusive means small, poorly fitted or top-dose-only effect, or another doubt; inactive means no such curve, though single readings can be large; an effect the other way counts as inactive or inconclusive.

Legend:
[1] = Primary qHTS for inhibitors of nuclear receptor binding SET domain protein 2 (NSD2) in an isogenic RCH-ACV NSD2 p.E1099K mutant (9B) (AID 1645876); further: nearly all actives have a fitted effect of over 70% in size; further: potency means the concentration at half of the fitted maximal effect
[2] = Primary qHTS for inhibitors of nuclear receptor binding SET domain protein 2 (NSD2) in an RCH-ACV wild type WT cells (2C) (AID 1645877); settings: activity change, negative = cell killing: at 44.9 µM (top of the series); further: nearly all actives have a fitted effect of over 70% in size; further: potency means the concentration at half of the fitted maximal effect; on activity change, negative = cell killing: on the % scale 0 is the no-effect control and ±100 the full control effect
[3] = molecular target: Glutathione peroxidase 1 (Homo sapiens) (UniProt P07203); assay: Primary qHTS Assay for Inhibitors of Recombinant Selenoprotein Glutathione Peroxidase 1 (GPX1) (AID 1845191); settings: activity, negative = inhibition: at 48.8 µM (top of the series); further: potency means the concentration at half of the fitted maximal effect; nearly all actives have a fitted effect of over 65% in size
Chain of UniProt P07203 (P07203 whole entry, looked up): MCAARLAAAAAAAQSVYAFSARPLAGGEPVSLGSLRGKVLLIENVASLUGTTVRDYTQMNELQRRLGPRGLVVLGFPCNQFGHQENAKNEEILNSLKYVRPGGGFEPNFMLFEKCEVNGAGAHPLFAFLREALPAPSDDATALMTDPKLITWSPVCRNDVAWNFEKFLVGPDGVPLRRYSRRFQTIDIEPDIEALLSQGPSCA
Method in brief: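 NADPH consumption tracked by fluorescence at 340/450 nm between t=0 and t=15 min, room temperature. Final mix: 10 nM GPX1, 100 nM glutathione reductase, 1 mM GSH, 0.5 mM NADPH, 0.5 mM cumene hydroperoxide, 0.01% BSA; 30 min compound–enzyme preincubation.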

[4] = molecular target: Phospholipid hydroperoxide glutathione peroxidase GPX4 (Homo sapiens) (UniProt P36969); assay: Primary qHTS Assay for Inhibitors of Recombinant Selenoprotein Glutathione Peroxidase 4 (GPX4) (AID 1845192); further: nearly all actives have a fitted effect of over 65% in size; further: potency means the concentration at half of the fitted maximal effect
Chain of UniProt P36969 (P36969 whole entry, looked up): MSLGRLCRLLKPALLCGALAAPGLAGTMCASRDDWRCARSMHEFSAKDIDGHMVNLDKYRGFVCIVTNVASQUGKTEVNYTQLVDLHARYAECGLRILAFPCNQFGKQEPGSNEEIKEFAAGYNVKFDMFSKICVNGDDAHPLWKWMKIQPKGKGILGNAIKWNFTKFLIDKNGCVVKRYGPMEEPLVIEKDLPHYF
Method in brief: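 NADPH consumption followed by fluorescence at 340/450 nm, t=0 and after 15 min at room temperature. Reaction started with cumene hydroperoxide (0.5 mM final) after 30 min compound–GPX4 preincubation; final 200 nM GPX4, 100 nM GR, 1 mM GSH, 0.5 mM NADPH.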

[5] = Primary fluorescence-based thiol-reactive (MSTI) qHTS assay for identification of artifact compounds. (AID 1845221); further: potency means the concentration at half of the fitted maximal effect;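 further: thiol-reactive compounds lower the probe fluorescence signal; nearly all actives have a fitted effect of over 65% in size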
Method in brief: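 Probe: MSTI 4 uM, PBS pH 7.4, 2% DMSO. Incubation 1 h, RT, light-protected. Readout fluorescence 525/598 nm.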

[6] = NCATS anti-infectives library activity on the primary C. elegans qHTS viability assay (AID 1745855; calls by dose curve; further: potency means the concentration at half of the fitted maximal effect)
Method in brief: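 Titration-based screen in worms: eggs hatched overnight in M9, L1 larvae fed TOP10 capsules in S medium with compound, incubated 21 °C for 7 days; fluorescent objects gated by size and intensity at days 0, 3 and 7.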

[7] = molecular target: Metallo-beta-lactamase type 2 (Klebsiella pneumoniae) (UniProt C7C422); assay: qHTS to identify inhibitors of the New Delhi Metallo-beta-lactamase (NDM): assay validation screen against the NCATS LOPAC Collection (AID 1794843); further: potency means the concentration at half of the fitted maximal effect
Chain of UniProt C7C422 (C7C422 whole entry, looked up): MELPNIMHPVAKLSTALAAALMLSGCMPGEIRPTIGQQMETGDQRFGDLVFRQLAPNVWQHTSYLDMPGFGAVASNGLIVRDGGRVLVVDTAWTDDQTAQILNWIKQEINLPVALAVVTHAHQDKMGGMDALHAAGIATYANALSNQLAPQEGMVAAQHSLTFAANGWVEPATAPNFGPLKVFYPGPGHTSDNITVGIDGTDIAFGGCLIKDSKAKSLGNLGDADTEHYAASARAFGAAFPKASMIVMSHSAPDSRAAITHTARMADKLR
Method in brief: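 NDM-1 at 2 nM final in 50 mM HEPES pH 7.0, 1 uM ZnSO4, 0.01% Tween20, preincubated with LOPAC compounds pinned in DMSO; 50 uM nitrocefin (stock) added. Hydrolysis read as absorbance at 485 nm in the plateau phase.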

[8] = molecular target: Rap guanine nucleotide exchange factor 3 (Homo sapiens) (UniProt O95398); assay: Confirmatory qHTS for antagonist of cAMP-regulated guanine nucleotide exchange factor 3 (EPAC1) (AID 1645880); further: potency means the concentration at half of the fitted maximal effect; nearly all actives have a fitted effect of over 55% in size
Chain of UniProt O95398 (O95398 whole entry, looked up): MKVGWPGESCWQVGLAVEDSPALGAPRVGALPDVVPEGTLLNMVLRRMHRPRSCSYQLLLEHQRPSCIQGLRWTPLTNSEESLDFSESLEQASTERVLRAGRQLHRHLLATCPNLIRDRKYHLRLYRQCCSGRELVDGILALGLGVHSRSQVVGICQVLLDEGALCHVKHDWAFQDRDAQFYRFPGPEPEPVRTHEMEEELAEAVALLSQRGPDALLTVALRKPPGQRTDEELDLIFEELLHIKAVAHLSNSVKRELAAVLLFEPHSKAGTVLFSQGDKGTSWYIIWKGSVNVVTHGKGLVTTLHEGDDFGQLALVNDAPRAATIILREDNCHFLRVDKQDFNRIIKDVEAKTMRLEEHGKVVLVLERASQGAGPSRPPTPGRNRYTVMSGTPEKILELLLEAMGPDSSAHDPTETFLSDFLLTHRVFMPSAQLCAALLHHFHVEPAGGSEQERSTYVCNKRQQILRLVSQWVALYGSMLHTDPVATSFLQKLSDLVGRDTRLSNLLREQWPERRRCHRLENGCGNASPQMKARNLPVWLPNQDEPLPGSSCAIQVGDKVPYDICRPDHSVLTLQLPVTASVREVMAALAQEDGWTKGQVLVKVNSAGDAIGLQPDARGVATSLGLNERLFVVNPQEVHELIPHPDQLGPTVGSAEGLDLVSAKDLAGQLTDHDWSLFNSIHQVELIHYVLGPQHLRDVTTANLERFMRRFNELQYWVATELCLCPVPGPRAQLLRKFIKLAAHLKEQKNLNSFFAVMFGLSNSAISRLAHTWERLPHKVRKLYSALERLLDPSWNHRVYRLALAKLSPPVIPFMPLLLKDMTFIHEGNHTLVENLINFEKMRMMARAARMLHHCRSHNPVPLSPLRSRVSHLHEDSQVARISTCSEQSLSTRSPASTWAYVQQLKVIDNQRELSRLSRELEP
Method in brief: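 Released BODIPY-GDP fluoresces less than Rap1-bound BODIPY-GDP; the signal is followed at 480/540 nm at 5-min intervals over 30 min, after 5 min at room temperature. Reactions contain 100 nM EPAC1, 250 nM RAP1B-BODIPY-GDP and 50 uM GDP; results are normalized to ATA and DMSO.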

[9] = molecular target: Rap guanine nucleotide exchange factor 3 (Homo sapiens) (UniProt O95398); assay: Counterscreen qHTS for agonist of cAMP-regulated guanine nucleotide exchange factor 3 (EPAC1) (AID 1645889); settings: EPAC1 Rap1B-BODIPY-GDP exchange, fluorescence; at 154 µM (top of the series); further: % of control where 0% means no effect; nearly all actives have a fitted effect of over 40% in size
Method in brief: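 Rap1B-BODIPY-GDP 250 nM + GDP 50 uM; cpds 7-pt, final 9.74 nM–152 uM (activator mode) or from 7.32 nM upwards (inhibitor mode); RT; FI 480/540 nm at 5 and 30 min, then ± cAMP, reread.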

[10] = NCATS anti-infectives library activity on HEK293 viability as a counter-qHTS vs the C. elegans viability qHTS (AID 1745854); further: potency means the concentration at half of the fitted maximal effect
Method in brief: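 CellTiter-Glo luminescence, read on a CCD imager, scored viability of HEK293 cells after 24 hr compound exposure at 37C. Library tested in several concentrations, 1:5 steps, up to 41.7 uM; digitonin served as control.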
Tags describe the fitted curve by direction and shape.

COc1ccc2nc(S(=O)Cc3ncc(C)c(OC)c3C)[nH]c2c1 (configuration not stated)
Potency [1]: inconclusive: 16.8 µM [inhibitor, partial curve, poor fit] | Potency [2]: inconclusive: 21.1 µM [inhibitor, single point] and inconclusive: 23.5 µM [inhibitor, single point] | Potency [3]: active: 5.08 µM

CC1(O)CC(c2nc(-c3ccc4ccc(-c5ccccc5)nc4c3)c3c(N)nccn23)C1 (configuration not stated)
Potency [1]: inconclusive: 20.9 µM [inhibitor, partial curve] | Potency [2]: inconclusive: 20.9 µM [inhibitor, partial curve] | Potency [4]: inactive | Potency [5]: inconclusive: 18.9 µM [inhibitor, partial curve]

CC1=NN(c2ccccc2)C(=O)C1
Potency [1]: inactive | Potency [3]: inconclusive: 6.4 µM [inhibitor, full curve]

N=C(N)c1ccc2cc(OC(=O)c3ccc(N=C(N)N)cc3)ccc2c1
Potency [1]: inconclusive: 37.2 µM [inhibitor, partial curve, poor fit] | Potency [2]: inconclusive: 29.9 µM [inhibitor, single point] | Potency [6]: inactive and inconclusive: 23 µM [activator, single point] | Potency [4]: inconclusive: 18 µM [inhibitor, single point]

Nc1ccn(C2CO[C@H](CO)O2)c(=O)n1 (some centres not stated)
Potency [1]: inconclusive: 18.8 µM [inhibitor, single point] | Potency [2]: inconclusive: 33.5 µM [inhibitor, single point] | Potency [5]: inactive

COc1cc2ncnc(Nc3cc(Br)c(O)c(Br)c3)c2cc1OC
Potency [1]: inconclusive: 20.9 µM [inhibitor, partial curve] and inconclusive: 23 µM [inhibitor, single point] | Potency [2]: inconclusive: 23.5 µM [inhibitor, single point] and inconclusive: 23 µM [inhibitor, single point] | Potency [5]: active: 6.7 µM

O=C(c1ccc(F)cc1)C1CCN(CCn2c(=O)[nH]c3ccccc3c2=O)CC1
Potency [1]: inconclusive: 33.5 µM [inhibitor, partial curve, poor fit] | Potency [2]: inconclusive: 26.6 µM [inhibitor, single point] | Potency [5]: inactive

CCCc1nn(C)c2c(=O)[nH]c(-c3cc(S(=O)(=O)N4CCN(C)CC4)ccc3OCC)nc12
Potency [1]: inconclusive: 18.8 µM [inhibitor, single point] | Potency [2]: active: 10.6 µM and inactive | Potency [7]: inconclusive: 12.6 µM [inhibitor, single point]

c1ccc(CNc2nc(N3CCOc4ccccc43)nc3c2CCCC3)cc1
Potency [1]: inconclusive: 29 µM [inhibitor, single point] | Potency [2]: inconclusive: 26.3 µM [inhibitor, single point] | Potency [5]: inconclusive: 2.67 µM [inhibitor, partial curve, poor fit]

CC(C)(Sc1ccc(CCN(CCCCC2CCCCC2)C(=O)NC2CCCCC2)cc1)C(=O)O
Potency [1]: inconclusive: 32.5 µM [inhibitor, partial curve, poor fit] | Potency [8]: active: 28 µM and active: 42.6 µM | activation [9]: inconclusive: 11.6% [activator] | Potency [3]: inconclusive: 18 µM [inhibitor, partial curve, poor fit]

CC1=CC(=O)c2ccccc2C1=O
Potency [1]: active: 31.6 µM and inactive | Potency [2]: inconclusive: 31.6 µM [inhibitor, single point] and inconclusive: 10.5 µM [inhibitor, partial curve] | Potency [3]: inconclusive: 6.49 µM [inhibitor, partial curve]

CC(=O)c1c(C)c2cnc(Nc3ccc(N4CCNCC4)cn3)nc2n(C2CCCC2)c1=O
Potency [1]: inconclusive: 163 nM [inhibitor, full curve] and active: 1.48 µM | Potency [2]: inconclusive: 290 nM [inhibitor, full curve] and active: 1.32 µM | Potency [3]: inconclusive: 28.6 µM [inhibitor, partial curve, poor fit] | Potency [4]: inconclusive: 20 µM [inhibitor, partial curve]

c1ccc([C@H]2CN3CCSC3=N2)cc1
Potency [1]: inconclusive: 21.1 µM [inhibitor, single point] and inactive | Potency [2]: inconclusive: 33.5 µM [inhibitor, single point] | Potency [6]: active: 5.15 µM

CC(C)C[C@H](NC(=O)[C@@H](NC(=O)c1cccc(-c2ccccc2)n1)[C@@H](C)O)B(O)O
Potency [1]: active: 29 nM and active: 32.3 nM | Potency [6]: active: 2.05 µM

COc1ccc(Cn2ccc3ccc(C(=O)NO)cc32)cc1
Potency [1]: active: 9.16 µM and active: 13.2 µM | Potency [10]: inconclusive: 11.2 µM [cytotoxic, partial curve, poor fit] | Potency [5]: inconclusive: 0.532 µM [inhibitor, full curve]
